# Reference: the supplement of paper PMC8728848
# The other results are listed elsewhere or left out.
# B1: GNA (Galanthus nivalis), P30617 (protein)
# chain: MAKASLLILAAIFLGVITPSCLSDNILYSGETLSTGEFLNYGSFVFIMQEDCNLVLYDVDKPIWATNTGGLSRSCFLSMQTDGNLVVYNPSNKPIWASNTGGQNGNYVCILQKDRNVVIYGTDRWATGTHTGLVGIPASPPSEKYPTAGKIKLVTAK
# Columns and labels:
# Experiment in all cases: glycan array binding signal (z-score within array); higher = stronger binding
# Conditions in all cases: glycan notation: IUPAC condensed, linker removed
# Fuc(a1-4)GlcNAc = molecular target: Fuc(a1-4)GlcNAc
# Outline: (§1)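 Negative Z-scores can be read as non-binding. The Z-score is calculated within each array and then averaged across arrays of one protein sequence at different concentrations or buffers and across linkers. Arrays, 3228 in all, were curated from the Consortium for Functional Glycomics database and kept only where the protein sequence was available.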
# Fuc(b1-3)GlcNAc = molecular target: Fuc(b1-3)GlcNAc
# Outline: as §1
# Gal(a1-2)Gal = molecular target: Gal(a1-2)Gal
# Outline: as §1
# Gal(a1-3)Gal = molecular target: Gal(a1-3)Gal
# Outline: as §1
# Gal(a1-3)Gal(b1-3)GlcNAc = molecular target: Gal(a1-3)Gal(b1-3)GlcNAc
# Outline: as §1
# [1] = molecular target: Gal(a1-3)Gal(b1-3)GlcNAc(b1-2)Man
# Outline: as §1
# [2] = molecular target: Gal(a1-3)Gal(b1-3)GlcNAc(b1-2)Man(a1-3)[Gal(a1-3)Gal(b1-3)GlcNAc(b1-2)Man(a1-6)]Man(b1-4)GlcNAc(b1-4)GlcNAc
# Outline: as §1
# [3] = molecular target: Gal(a1-3)Gal(b1-3)GlcNAc(b1-3)GalNAc
# Outline: as §1
# [4] = molecular target: Gal(a1-3)Gal(b1-3)GlcNAc(b1-6)GalNAc
# Outline: as §1
# [5] = molecular target: Gal(a1-3)Gal(b1-3)[Fuc(a1-4)]GlcNAc(b1-2)Man(a1-3)[Gal(a1-3)Gal(b1-3)[Fuc(a1-4)]GlcNAc(b1-2)Man(a1-6)]Man(b1-4)GlcNAc(b1-4)GlcNAc
# Outline: as §1
# Gal(a1-3)Gal(b1-4)Glc = molecular target: Gal(a1-3)Gal(b1-4)Glc
# Outline: as §1
# Gal(a1-3)Gal(b1-4)GlcNAc = molecular target: Gal(a1-3)Gal(b1-4)GlcNAc
# Outline: as §1
# [6] = molecular target: Gal(a1-3)Gal(b1-4)GlcNAc(b1-2)Man
# Outline: as §1
# [7] = molecular target: Gal(a1-3)Gal(b1-4)GlcNAc(b1-2)Man(a1-3)[Gal(a1-3)Gal(b1-4)GlcNAc(b1-2)Man(a1-6)]Man(b1-4)GlcNAc(b1-4)GlcNAc
# Outline: as §1
# [8] = molecular target: Gal(a1-3)Gal(b1-4)GlcNAc(b1-3)GalNAc
# Outline: as §1
# [9] = molecular target: Gal(a1-3)Gal(b1-4)GlcNAc(b1-6)GalNAc
# Outline: as §1
# [10] = molecular target: Gal(a1-3)Gal(b1-4)[Fuc(a1-3)]GlcNAc
# Outline: as §1
# [11] = molecular target: Gal(a1-3)Gal(b1-4)[Fuc(a1-3)]GlcNAc(b1-2)Man(a1-3)[Gal(a1-3)Gal(b1-4)[Fuc(a1-3)]GlcNAc(b1-2)Man(a1-6)]Man(b1-4)GlcNAc(b1-4)GlcNAc
# Outline: as §1
# Gal(a1-3)GalNAc = molecular target: Gal(a1-3)GalNAc
# Outline: as §1
# [12] = molecular target: Gal(a1-3)[Gal(a1-4)]Gal(b1-4)GlcNAc
# Outline: as §1
# [13] = molecular target: Gal(a1-4)Gal(b1-3)GlcNAc(b1-2)Man(a1-3)[Gal(a1-4)Gal(b1-3)GlcNAc(b1-2)Man(a1-6)]Man(b1-4)GlcNAc(b1-4)GlcNAc
# Outline: as §1
# Gal(a1-4)Gal(b1-4)Glc = molecular target: Gal(a1-4)Gal(b1-4)Glc
# Outline: as §1
# Gal(a1-4)Gal(b1-4)GlcNAc = molecular target: Gal(a1-4)Gal(b1-4)GlcNAc
# Outline: as §1
# [14] = molecular target: Gal(a1-4)Gal(b1-4)GlcNAc(b1-2)Man(a1-3)[Gal(a1-4)Gal(b1-4)GlcNAc(b1-2)Man(a1-6)]Man(b1-4)GlcNAc(b1-4)GlcNAc
# Outline: as §1
# [15] = molecular target: Gal(a1-4)Gal(b1-4)GlcNAc(b1-3)Gal(b1-4)Glc
# Outline: as §1
# Gal(a1-4)GlcNAc = molecular target: Gal(a1-4)GlcNAc
# Outline: as §1
# Gal(a1-6)Glc = molecular target: Gal(a1-6)Glc
# Outline: as §1
# Gal(b1-2)Gal = molecular target: Gal(b1-2)Gal
# Outline: as §1
# Gal(b1-3)Gal = molecular target: Gal(b1-3)Gal
# Outline: as §1
# Gal(b1-3)Gal(b1-4)GlcNAc = molecular target: Gal(b1-3)Gal(b1-4)GlcNAc
# Outline: as §1
# [16] = molecular target: Gal(b1-3)Gal(b1-4)GlcNAc(b1-2)Man(a1-3)[Gal(b1-3)Gal(b1-4)GlcNAc(b1-2)Man(a1-6)]Man(b1-4)GlcNAc(b1-4)GlcNAc
# Outline: as §1
# Gal(b1-3)GalNAc = molecular target: Gal(b1-3)GalNAc
# Outline: as §1
# [17] = molecular target: Gal(b1-3)GalNAc(a1-3)[Fuc(a1-2)]Gal(b1-4)Glc
# Outline: as §1
# [18] = molecular target: Gal(b1-3)GalNAc(a1-3)[Fuc(a1-2)]Gal(b1-4)GlcNAc
# Outline: as §1
# Gal(b1-3)GalNAc(b1-3)Gal = molecular target: Gal(b1-3)GalNAc(b1-3)Gal
# Outline: as §1
# [19] = molecular target: Gal(b1-3)GalNAc(b1-3)Gal(a1-4)Gal(b1-4)Glc
# Outline: as §1
# [20] = molecular target: Gal(b1-3)GalNAc(b1-4)Gal(b1-4)Glc
# Outline: as §1
# [21] = molecular target: Gal(b1-3)GalNAc(b1-4)[Neu5Ac(a2-3)]Gal(b1-4)Glc
# Outline: as §1
# Gal(b1-3)GlcNAc = molecular target: Gal(b1-3)GlcNAc
# Outline: as §1
# [22] = molecular target: Gal(b1-3)GlcNAc(a1-3)Gal(b1-4)GlcNAc
# Outline: as §1
# [23] = molecular target: Gal(b1-3)GlcNAc(a1-6)Gal(b1-4)GlcNAc
# Outline: as §1
# Gal(b1-3)GlcNAc(b1-2)Man = molecular target: Gal(b1-3)GlcNAc(b1-2)Man
# Outline: as §1
# [24] = molecular target: Gal(b1-3)GlcNAc(b1-2)Man(a1-3)[Gal(b1-3)GlcNAc(b1-2)Man(a1-6)]Man(b1-4)GlcNAc(b1-4)GlcNAc
# Outline: as §1
# [25] = molecular target: Gal(b1-3)GlcNAc(b1-2)Man(a1-3)[Gal(b1-3)GlcNAc(b1-2)Man(a1-6)]Man(b1-4)GlcNAc(b1-4)[Fuc(a1-6)]GlcNAc
# Outline: as §1
# [26] = molecular target: Gal(b1-3)GlcNAc(b1-2)Man(a1-3)[GlcNAc(b1-4)][Gal(b1-3)GlcNAc(b1-2)Man(a1-6)]Man(b1-4)GlcNAc(b1-4)GlcNAc
# Outline: as §1
binder,measurement,setting,value
B1,glycan array binding signal (z-score),Fuc(a1-4)GlcNAc,-0.063
same,glycan array binding signal (z-score),Fuc(b1-3)GlcNAc,-0.178
same,glycan array binding signal (z-score),Gal(a1-2)Gal,-0.158
same,glycan array binding signal (z-score),Gal(a1-3)Gal,-0.205
same,glycan array binding signal (z-score),Gal(a1-3)Gal(b1-3)GlcNAc,-0.23
same,glycan array binding signal (z-score),[1],-0.171
same,glycan array binding signal (z-score),[2],-0.111
same,glycan array binding signal (z-score),[3],-0.18
same,glycan array binding signal (z-score),[4],-0.172
same,glycan array binding signal (z-score),[5],0.43
same,glycan array binding signal (z-score),Gal(a1-3)Gal(b1-4)Glc,-0.18
same,glycan array binding signal (z-score),Gal(a1-3)Gal(b1-4)GlcNAc,-0.263
same,glycan array binding signal (z-score),[6],-0.167
same,glycan array binding signal (z-score),[7],2.17
same,glycan array binding signal (z-score),[8],-0.164
same,glycan array binding signal (z-score),[9],-0.182
same,glycan array binding signal (z-score),[10],-0.198
same,glycan array binding signal (z-score),[11],-0.106
same,glycan array binding signal (z-score),Gal(a1-3)GalNAc,-0.081
same,glycan array binding signal (z-score),[12],-0.088
same,glycan array binding signal (z-score),[13],0.249
same,glycan array binding signal (z-score),Gal(a1-4)Gal(b1-4)Glc,-0.113
same,glycan array binding signal (z-score),Gal(a1-4)Gal(b1-4)GlcNAc,-0.161
same,glycan array binding signal (z-score),[14],0.518
same,glycan array binding signal (z-score),[15],-0.192
same,glycan array binding signal (z-score),Gal(a1-4)GlcNAc,-0.158
same,glycan array binding signal (z-score),Gal(a1-6)Glc,-0.01
same,glycan array binding signal (z-score),Gal(b1-2)Gal,-0.159
same,glycan array binding signal (z-score),Gal(b1-3)Gal,-0.128
same,glycan array binding signal (z-score),Gal(b1-3)Gal(b1-4)GlcNAc,-0.171
same,glycan array binding signal (z-score),[16],0.171
same,glycan array binding signal (z-score),Gal(b1-3)GalNAc,-0.114
same,glycan array binding signal (z-score),[17],-0.11
same,glycan array binding signal (z-score),[18],-0.213
same,glycan array binding signal (z-score),Gal(b1-3)GalNAc(b1-3)Gal,-0.19
same,glycan array binding signal (z-score),[19],-0.232
same,glycan array binding signal (z-score),[20],-0.161
same,glycan array binding signal (z-score),[21],-0.218
same,glycan array binding signal (z-score),Gal(b1-3)GlcNAc,-0.181
same,glycan array binding signal (z-score),[22],-0.175
same,glycan array binding signal (z-score),[23],-0.163
same,glycan array binding signal (z-score),Gal(b1-3)GlcNAc(b1-2)Man,-0.149
same,glycan array binding signal (z-score),[24],0.173
same,glycan array binding signal (z-score),[25],-0.042
same,glycan array binding signal (z-score),[26],0.24
